In all, about 310,000 compounds went through this assay and about 14,000 (4.5%) showed an effect of 50% or more. Effects have a minus sign here. This is one part of the list.
Each compound was assayed against human ether-à-go-go-related gene (hERG) potassium channel (human, UniProt Q12809) (assay: primary screen, population patch clamp on CHO cells stably expressing hERG).
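Further: peak tail current of the secondary pulse compared with the same well before compound.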

human ether-à-go-go-related gene (hERG) potassium channel, sequence (Q12809 whole entry, looked up): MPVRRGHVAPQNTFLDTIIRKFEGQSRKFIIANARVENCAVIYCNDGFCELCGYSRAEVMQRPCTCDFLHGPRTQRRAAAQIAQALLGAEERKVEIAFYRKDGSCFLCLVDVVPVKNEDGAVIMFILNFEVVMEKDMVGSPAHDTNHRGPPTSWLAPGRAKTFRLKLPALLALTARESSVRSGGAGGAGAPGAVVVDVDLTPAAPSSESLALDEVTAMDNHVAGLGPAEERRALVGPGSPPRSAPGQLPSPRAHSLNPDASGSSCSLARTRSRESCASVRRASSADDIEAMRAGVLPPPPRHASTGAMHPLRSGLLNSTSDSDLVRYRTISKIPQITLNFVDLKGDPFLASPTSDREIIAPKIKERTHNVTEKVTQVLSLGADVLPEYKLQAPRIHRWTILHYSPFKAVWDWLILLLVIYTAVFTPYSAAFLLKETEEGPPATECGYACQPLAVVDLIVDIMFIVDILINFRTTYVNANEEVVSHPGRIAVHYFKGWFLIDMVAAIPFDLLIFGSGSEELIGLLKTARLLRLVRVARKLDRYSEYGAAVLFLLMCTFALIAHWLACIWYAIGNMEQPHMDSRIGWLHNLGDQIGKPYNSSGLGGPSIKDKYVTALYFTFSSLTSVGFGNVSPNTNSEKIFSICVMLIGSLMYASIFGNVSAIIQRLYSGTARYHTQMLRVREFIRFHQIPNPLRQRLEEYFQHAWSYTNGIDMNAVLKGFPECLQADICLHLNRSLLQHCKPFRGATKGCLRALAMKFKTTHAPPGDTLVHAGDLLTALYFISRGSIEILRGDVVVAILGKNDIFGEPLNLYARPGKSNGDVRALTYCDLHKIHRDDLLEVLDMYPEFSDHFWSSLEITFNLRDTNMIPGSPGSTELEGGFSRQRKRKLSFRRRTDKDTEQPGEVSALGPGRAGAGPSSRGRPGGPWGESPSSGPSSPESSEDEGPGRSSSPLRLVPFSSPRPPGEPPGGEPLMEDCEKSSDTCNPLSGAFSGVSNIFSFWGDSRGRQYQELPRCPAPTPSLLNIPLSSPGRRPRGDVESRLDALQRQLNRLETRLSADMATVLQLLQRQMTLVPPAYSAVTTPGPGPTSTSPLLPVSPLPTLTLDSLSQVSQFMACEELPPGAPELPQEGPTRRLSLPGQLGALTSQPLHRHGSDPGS

SMILES	hERG current change (%, negative = inhibition) at 10uM [%]
CCOC(=O)c1sc(=NC(=O)c2cccc(Br)c2)n(C)c1C	27.2
CN1CCN(C(=S)NCCc2ccccc2)CC1.O=C(O)C(=O)O	-14.5
CN(c1ccccc1)S(=O)(=O)c1cccc(NC(=O)Nc2ccc(Cl)cc2C#N)c1	-29.5
NC(=O)COC(=O)c1ccc2c(c1)C(=O)N(Cc1ccco1)C2=O	-5.91
CN(Cc1ccccc1)C(=O)CCn1c(=O)oc2ccccc21	-24.3
O=C(COC(=O)C1CCCO1)Nc1cccc(C(F)(F)F)c1 (centres unmarked)	21.1
COc1ccc(CNC(=O)C2CCC(=O)N(CCCN3CCCC3=O)C2)c(OC)c1 (centres unmarked)	9.7
COc1ccc(C(C(=O)NC2CCCCC2)N(C(=O)c2ccccn2)c2cccnc2)c(OC)c1 (centres unmarked)	20.6
CCCS(=O)(=O)N1CCC(C(=O)N2CCC3(CC2)OCCO3)CC1	-2.86
CCn1nc(NC(=O)CC(C)C)c2cc3ccc(C)cc3nc21	20.2
CC(C)(C)NC(=S)NNC(=O)[C@H]1C[C@@H]1c1ccccc1	11
O[C@@H]1CN(Cc2ccccc2Cl)CC[C@H]1N1CCOCC1	17.6
CCc1c(C)nc(SCC(=O)Nc2nc(-c3ccc(OC)cc3)cs2)[nH]c1=O	22.2
NC(=O)NCc1ccccc1Cl	15.9
Cc1ccc(S(=O)(=O)Nc2cccc(-c3cn4ccsc4n3)c2)cc1	-2.67
Cn1cccc1Cc1nnc(SCC(=O)Nc2ccc3c(c2)OCCO3)n1-c1ccc(F)cc1	-7.1
COc1ccc(OC)c(NC(=O)[C@@H]2CCCN2C(=O)c2cccs2)c1	-2.19
CN1CCN(C(=O)C2=C[C@H](c3coc4ccccc4c3=O)C[C@H](OCc3ccc(CO)cc3)O2)CC1	-41.1
COc1ccc(C(=O)c2c(N)sc3c2CCN(C(=O)OC(C)(C)C)C3)cc1	9.87

SMILES	hERG current change (%, negative = inhibition) at 10uM [%]
CC(C)NCC(=O)C12CC3CC(CC(C3)C1)C2	0.0346
CCC(Sc1nc2ccncc2[nH]1)C(=O)Nc1cc(Cl)ccc1C (centres unmarked)	-44.3
COc1cc(CN(C(=S)NCC(=O)N2CCCC2)C2CCCC2)cc(OC)c1OC	6.25
CCN(C(=O)COC(=O)c1ccccc1NC(=O)c1ccco1)C1CCS(=O)(=O)C1 (centres unmarked)	-72.1
CN(CCOc1ccccc1)S(=O)(=O)c1ccccc1C#N	-30.7
COc1ccc(OC)c(NC(=O)NC2CCCc3ccccc32)c1 (centres unmarked)	2.64
CN1CCN(CCCN2c3ccccc3Sc3ccc(C(F)(F)F)cc32)CC1.Cl	-30.4
Cc1cc(C)c(C)c(OCCCCN(C)Cc2ccccc2)c1.O=C(O)C(=O)O	-2.9
CCNC(=O)NC(=O)c1csc([N+](=O)[O-])c1	10
FC(F)(F)c1cc(-c2ccc(Cl)cc2)nc(NCc2cccnc2)n1	3.07
Cc1ccnc(Nc2nc(-c3ccc(O)cc3O)cs2)c1	12
COc1ccc(C(=O)NCCc2nnc3ccc(SCC(=O)N4CCCC4)nn23)cc1	11.5
Cc1cc2nccc(-c3ccc(OCCCF)cc3)n2n1	-22.3
Cc1ccc(C(=O)CSc2nnc(-c3ccco3)n2CC2CCCO2)cc1 (centres unmarked)	-13.3
O=S(=O)(Nc1nccs1)c1ccc(Nc2nnc(-c3ccccc3)c3ccccc23)cc1	13.7
COc1cc([N+](=O)[O-])ccc1NC(=O)CCN1C(=O)C2C3CCC(C3)C2C1=O (centres unmarked)	-12.4
Cc1nn2c3ccccc3n(CC(=O)c3cccs3)c2nc1=O	1.78
O=C(Nc1ccccc1)Nc1ccc2ncoc2c1	24.7
CC1(C)CC(NC(=O)C(C)(C)Oc2ccc(Cl)cc2)CC(C)(C)N1	-1.9

SMILES	hERG current change (%, negative = inhibition) at 10uM [%]
CC1CC(C)CN(S(=O)(=O)c2ccc(C(C)(C)C)cc2)C1 (centres unmarked)	16
CCN1CCN(c2ccc(S(=O)(=O)N3CCCC3)cn2)CC1	16.2
O=c1oc2ccccc2cc1-c1ccc(O)cc1	-7.37
Cc1ccc(OCC(=O)NC(=S)Nc2ccc(Br)cn2)cc1C	13.8
O=C(OCC(=O)c1cccs1)C1=COCCO1	19.7
O=C(CSc1nnc(CNC(=O)c2c(F)cccc2Cl)o1)Nc1ccc2c(c1)OCCO2	10.6
CC1CCCCN1C(=O)c1ccc(NC(=O)c2ccccc2Cl)cc1 (centres unmarked)	7.09
O=C(CSc1nnc2ccccn12)NC(=O)NC1CCCC1	13.4
COc1cc2c(cc1OC)C(c1ccc(Cl)cc1)CC(=O)N2 (centres unmarked)	-2.54
Cc1ccc(OCc2nnnn2-c2ccccc2)cc1	-9.94
Cc1cccc(-c2cc3nc(-c4ccccc4)cc(=O)n3[nH]2)c1	7.06
O=C(c1cc2cc(Cl)ccc2[nH]1)N1CCC2(CC1)OCCO2	-7.66
CC1(c2ccc(OC(F)F)cc2)NC(=O)N(CC(=O)Nc2ccc(S(N)(=O)=O)cc2)C1=O (centres unmarked)	1.64
Cc1ccc(NC(=O)CCC(=O)NNC(=O)C(c2ccccc2)c2ccccc2)c(C)c1	14.7
O=C(CNC(=O)c1ccc(Br)o1)NCC(=O)OCc1ccccc1	-15.8
COc1ccc(N(C(=O)c2cccc([N+](=O)[O-])c2)S(=O)(=O)c2ccc3c(c2)n(C)c(=O)n3C)cc1	-5.42
CCCn1c(SCC(=O)NNC(=O)c2ccccc2)nnc1-c1cccnc1	-30.9
Cc1ccc(S(=O)(=O)/N=C(\CN2CCOCC2)N2CCCC2)cc1	10.2

— article PMC4336329 (PLoS ONE, 2015)
